By IC50 is meant the dose at which the fit gives 50% viability; where the fit passes the top or lowest dose, that dose stands as a limit. The AUC spans the tested range (256-fold, ending at the top dose) of the same fit: 1 means no effect, lower means more sensitive. For part of these data: The top dose, if marked as inferred, was calculated from the reported fits.
Columns and labels:
Test in all cases: Viability of human cancer cell lines after 72 h of drug (GDSC screen)
Bortezomib = compound: CC(C)C[C@H](NC(=O)[C@H](Cc1ccccc1)NC(=O)c1cnccn1)B(O)O [Bortezomib]; settings: top dose 0.02 µM
Experimental: (§1)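 Human cancer cell lines in 384-well plates, medium with 10% serum, drug for 72 h over a 256-fold dose range (nine 2-fold or five 4-fold steps up to the top dose). Adherent lines were fixed and stained with the nucleic acid dye Syto60, suspension lines read with resazurin; signal relative to control wells, capped at 0 and 100%. One two-parameter sigmoid per drug and line, fitted in a mixed model over all curves with the slope shared within a line.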

CX-5461 = compound: Cc1cnc(CNC(=O)c2c(=O)c3ccc(N4CCCN(C)CC4)nc3n3c2sc2ccccc23)cn1 [CX-5461]; settings: top dose 10.24 µM; top dose inferred
Experimental: as §1

Paclitaxel = compound: CC(=O)O[C@H]1C(=O)[C@@]2(C)[C@H]([C@H](OC(=O)c3ccccc3)[C@]3(O)C[C@H](OC(=O)[C@H](O)[C@@H](NC(=O)c4ccccc4)c4ccccc4)C(C)=C1C3(C)C)[C@]1(OC(C)=O)CO[C@@H]1C[C@@H]2O [Paclitaxel]; settings: top dose 0.1024 µM
Experimental: as §1

Obatoclax mesylate = compound: COC1=CC(c2cc3ccccc3[nH]2)=N/C1=C\c1[nH]c(C)cc1C [Obatoclax mesylate]; settings: top dose 16 µM
Experimental: as §1

STF-62247 = compound: Cc1cccc(Nc2nc(-c3ccncc3)cs2)c1 [STF-62247]; settings: top dose 10.24 µM; top dose inferred
Experimental: as §1

CP724714 = compound: COCC(=O)NC/C=C/c1ccc2ncnc(Nc3ccc(Oc4ccc(C)nc4)c(C)c3)c2c1 [CP724714]; settings: top dose 10.24 µM; top dose inferred
Experimental: as §1

OVCAR-4 (ovary, adherent)
AUC (Bortezomib): 0.392
IC50 (Bortezomib): 0.546 nM
AUC (CX-5461): 0.822
IC50 (CX-5461): > 10200 nM
AUC (Paclitaxel): 0.567
IC50 (Paclitaxel): 10.7 nM
AUC (Obatoclax mesylate): 0.322
IC50 (Obatoclax mesylate): 249 nM
AUC (STF-62247): 0.976
IC50 (STF-62247): > 10200 nM
AUC (CP724714): 0.924
IC50 (CP724714): > 10200 nM

P30-OHK (lymphoblastic leukaemia, suspension)
AUC (Bortezomib): 0.945
IC50 (Bortezomib): > 20 nM
AUC (CX-5461): 0.384
IC50 (CX-5461): 326 nM
AUC (Paclitaxel): 0.974
IC50 (Paclitaxel): > 102 nM
AUC (Obatoclax mesylate): 0.133
IC50 (Obatoclax mesylate): 94.3 nM
AUC (STF-62247): 0.973
IC50 (STF-62247): > 10200 nM
AUC (CP724714): 0.933
IC50 (CP724714): > 10200 nM

P32-ISH (Burkitt lymphoma, suspension)
AUC (Bortezomib): 0.431
IC50 (Bortezomib): 0.849 nM
AUC (CX-5461): 0.607
IC50 (CX-5461): 1170 nM
AUC (Paclitaxel): 0.795
IC50 (Paclitaxel): 35 nM
AUC (Obatoclax mesylate): 0.013
IC50 (Obatoclax mesylate): < 62.5 nM
AUC (STF-62247): 0.953
IC50 (STF-62247): > 10200 nM
AUC (CP724714): 0.994
IC50 (CP724714): > 10200 nM

PF-382 (T-cell lymphoblastic leukaemia, suspension)
AUC (Bortezomib): 0.516
IC50 (Bortezomib): 1.38 nM
AUC (CX-5461): 0.451
IC50 (CX-5461): 478 nM
AUC (Paclitaxel): 0.676
IC50 (Paclitaxel): 18.5 nM
AUC (Obatoclax mesylate): 0.175
IC50 (Obatoclax mesylate): 124 nM
AUC (STF-62247): 0.983
IC50 (STF-62247): > 10200 nM
AUC (CP724714): 0.99
IC50 (CP724714): > 10200 nM

PL-21 (acute myeloid leukaemia, suspension)
AUC (Bortezomib): 0.609
IC50 (Bortezomib): 2.62 nM
AUC (CX-5461): 0.976
IC50 (CX-5461): > 10200 nM
AUC (Paclitaxel): 0.582
IC50 (Paclitaxel): 11.2 nM
AUC (Obatoclax mesylate): 0.469
IC50 (Obatoclax mesylate): 813 nM
AUC (STF-62247): 0.914
IC50 (STF-62247): > 10200 nM
AUC (CP724714): 0.968
IC50 (CP724714): > 10200 nM

PSN1 (pancreas, adherent)
AUC (Bortezomib): 0.441
IC50 (Bortezomib): 0.888 nM
AUC (CX-5461): 0.596
IC50 (CX-5461): 1120 nM
AUC (Paclitaxel): 0.24
IC50 (Paclitaxel): 1.32 nM
AUC (Obatoclax mesylate): 0.029
IC50 (Obatoclax mesylate): < 62.5 nM
AUC (STF-62247): 0.958
IC50 (STF-62247): > 10200 nM
AUC (CP724714): 0.978
IC50 (CP724714): > 10200 nM

QIMR-WIL (acute myeloid leukaemia, suspension)
AUC (Bortezomib): 0.489
IC50 (Bortezomib): 1.17 nM
AUC (CX-5461): 0.284
IC50 (CX-5461): 160 nM
AUC (Paclitaxel): 0.602
IC50 (Paclitaxel): 12.1 nM
AUC (Obatoclax mesylate): 0.254
IC50 (Obatoclax mesylate): 202 nM
AUC (STF-62247): 0.969
IC50 (STF-62247): > 10200 nM
AUC (CP724714): 0.955
IC50 (CP724714): > 10200 nM

RCC10RGB (kidney, adherent)
AUC (Bortezomib): 0.638
IC50 (Bortezomib): 4.36 nM
AUC (CX-5461): 0.926
IC50 (CX-5461): > 10200 nM
AUC (Paclitaxel): 0.964
IC50 (Paclitaxel): > 102 nM
AUC (Obatoclax mesylate): 0.508
IC50 (Obatoclax mesylate): 1070 nM
AUC (STF-62247): 0.924
IC50 (STF-62247): > 10200 nM
AUC (CP724714): 0.955
IC50 (CP724714): > 10200 nM

REH (B-cell leukaemia, suspension)
AUC (Bortezomib): 0.924
IC50 (Bortezomib): > 20 nM
AUC (CX-5461): 0.243
IC50 (CX-5461): 120 nM
AUC (Paclitaxel): 0.968
IC50 (Paclitaxel): > 102 nM
AUC (Obatoclax mesylate): 0.087
IC50 (Obatoclax mesylate): < 62.5 nM
AUC (STF-62247): 0.942
IC50 (STF-62247): > 10200 nM
AUC (CP724714): 0.986
IC50 (CP724714): > 10200 nM

RF-48 (stomach, adherent)
AUC (Bortezomib): 0.631
IC50 (Bortezomib): 3.02 nM
AUC (CX-5461): 0.652
IC50 (CX-5461): 1790 nM
AUC (Paclitaxel): 0.616
IC50 (Paclitaxel): 13.9 nM
AUC (Obatoclax mesylate): 0.331
IC50 (Obatoclax mesylate): 319 nM
AUC (STF-62247): 0.937
IC50 (STF-62247): > 10200 nM
AUC (CP724714): 0.975
IC50 (CP724714): > 10200 nM

RH-1 (rhabdomyosarcoma, adherent)
AUC (Bortezomib): 0.941
IC50 (Bortezomib): > 20 nM
AUC (CX-5461): 0.24
IC50 (CX-5461): 134 nM
AUC (Paclitaxel): 0.778
IC50 (Paclitaxel): 34.5 nM
AUC (Obatoclax mesylate): 0.323
IC50 (Obatoclax mesylate): 353 nM
AUC (STF-62247): 0.981
IC50 (STF-62247): > 10200 nM
AUC (CP724714): 0.983
IC50 (CP724714): > 10200 nM

ROS-50 (B-cell leukaemia, suspension)
AUC (Bortezomib): 0.739
IC50 (Bortezomib): 7.44 nM
AUC (CX-5461): 0.862
IC50 (CX-5461): > 10200 nM
AUC (Paclitaxel): 0.926
IC50 (Paclitaxel): > 102 nM
AUC (Obatoclax mesylate): 0.631
IC50 (Obatoclax mesylate): 2550 nM
AUC (STF-62247): 0.934
IC50 (STF-62247): > 10200 nM
AUC (CP724714): 0.982
IC50 (CP724714): > 10200 nM

RPMI-6666 (Hodgkin lymphoma, suspension)
AUC (Bortezomib): 0.691
IC50 (Bortezomib): 4.83 nM
AUC (CX-5461): 0.62
IC50 (CX-5461): 1470 nM
AUC (Paclitaxel): 0.535
IC50 (Paclitaxel): 8.13 nM
AUC (Obatoclax mesylate): 0.242
IC50 (Obatoclax mesylate): 152 nM
AUC (STF-62247): 0.789
IC50 (STF-62247): 5550 nM
AUC (CP724714): 0.976
IC50 (CP724714): > 10200 nM

RPMI-8402 (T-cell lymphoblastic leukaemia, suspension)
AUC (Bortezomib): 0.591
IC50 (Bortezomib): 2.12 nM
AUC (CX-5461): 0.225
IC50 (CX-5461): 120 nM
AUC (Paclitaxel): 0.643
IC50 (Paclitaxel): 14.8 nM
AUC (Obatoclax mesylate): 0.098
IC50 (Obatoclax mesylate): 66.8 nM
AUC (STF-62247): 0.892
IC50 (STF-62247): 8660 nM
AUC (CP724714): 0.982
IC50 (CP724714): > 10200 nM

RPMI-8866 (chronic myeloid leukaemia, suspension)
AUC (Bortezomib): 0.684
IC50 (Bortezomib): 3.92 nM
AUC (CX-5461): 0.494
IC50 (CX-5461): 616 nM
AUC (Paclitaxel): 0.789
IC50 (Paclitaxel): 41.7 nM
AUC (Obatoclax mesylate): 0.246
IC50 (Obatoclax mesylate): 198 nM
AUC (STF-62247): 0.959
IC50 (STF-62247): > 10200 nM
AUC (CP724714): 0.972
IC50 (CP724714): > 10200 nM

RS4-11 (leukaemia, suspension)
AUC (Bortezomib): 0.908
IC50 (Bortezomib): > 20 nM
AUC (CX-5461): 0.16
IC50 (CX-5461): 66 nM
AUC (Paclitaxel): 0.53
IC50 (Paclitaxel): 7.65 nM
AUC (Obatoclax mesylate): 0.173
IC50 (Obatoclax mesylate): 116 nM
AUC (STF-62247): 0.983
IC50 (STF-62247): > 10200 nM
AUC (CP724714): 0.988
IC50 (CP724714): > 10200 nM

RXF393 (kidney, adherent)
AUC (Bortezomib): 0.444
IC50 (Bortezomib): 0.828 nM
AUC (CX-5461): 0.848
IC50 (CX-5461): > 10200 nM
AUC (Paclitaxel): 0.606
IC50 (Paclitaxel): 14 nM
AUC (Obatoclax mesylate): 0.588
IC50 (Obatoclax mesylate): 1910 nM
AUC (STF-62247): 0.922
IC50 (STF-62247): > 10200 nM
AUC (CP724714): 0.944
IC50 (CP724714): > 10200 nM

Raji (Burkitt lymphoma, suspension)
AUC (Bortezomib): 0.662
IC50 (Bortezomib): 3.41 nM
AUC (CX-5461): 0.889
IC50 (CX-5461): > 10200 nM
AUC (Paclitaxel): 0.893
IC50 (Paclitaxel): > 102 nM
AUC (Obatoclax mesylate): 0.619
IC50 (Obatoclax mesylate): 2080 nM
AUC (STF-62247): 0.978
IC50 (STF-62247): > 10200 nM
AUC (CP724714): 0.989
IC50 (CP724714): > 10200 nM

Ramos-2G6-4C10 (Burkitt lymphoma, suspension)
AUC (Bortezomib): 0.429
IC50 (Bortezomib): 0.822 nM
AUC (CX-5461): 0.637
IC50 (CX-5461): 1440 nM
AUC (Paclitaxel): 0.633
IC50 (Paclitaxel): 14 nM
AUC (Obatoclax mesylate): 0.199
IC50 (Obatoclax mesylate): 153 nM
AUC (STF-62247): 0.991
IC50 (STF-62247): > 10200 nM
AUC (CP724714): 0.955
IC50 (CP724714): > 10200 nM

SBC-1 (small cell lung carcinoma, suspension)
AUC (Bortezomib): 0.656
IC50 (Bortezomib): 3.33 nM
AUC (CX-5461): 0.757
IC50 (CX-5461): 3410 nM
AUC (Paclitaxel): 0.781
IC50 (Paclitaxel): 40.9 nM
AUC (Obatoclax mesylate): 0.672
IC50 (Obatoclax mesylate): 2960 nM
AUC (STF-62247): 0.988
IC50 (STF-62247): > 10200 nM
AUC (CP724714): 0.986
IC50 (CP724714): > 10200 nM

SCC-3 (B-cell lymphoma, suspension)
AUC (Bortezomib): 0.628
IC50 (Bortezomib): 2.55 nM
AUC (CX-5461): 0.719
IC50 (CX-5461): 2180 nM
AUC (Paclitaxel): 0.625
IC50 (Paclitaxel): 12.9 nM
AUC (Obatoclax mesylate): 0.255
IC50 (Obatoclax mesylate): 254 nM
AUC (STF-62247): 0.994
IC50 (STF-62247): > 10200 nM
AUC (CP724714): 0.991
IC50 (CP724714): > 10200 nM

From the supplement of paper PMC4967469
